Data published in a collection of fitness landscapes (doi:10.1038/s41467-024-54723-y).
The full ranking holds about 18,000 sequences; the median of “TetR repression strength (sort-seq, GFP reporter)” is about 0.23, and the highest 2% start at about 0.68. Some of the results follow.

biological target: TetR (class B, Tn10) (UniProt P04483); experiment: TetR repression strength (sort-seq, GFP reporter) (relative to tetO2 = 1); higher = stronger repression; conditions: E. coli
Procedure, shortened: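 E. coli SIG10-MAX carried a low-copy plasmid library with eight randomized operator positions between a constitutive promoter and sfGFP, with TetR constitutively expressed. Cells grew 5 h at 37 °C in LB with 50 µg/mL chloramphenicol, then 10^6 cells were FACS-sorted into 13 fluorescence bins, each Illumina-sequenced. Repression strength is the top bin index plus one minus the read-weighted mean bin, divided by the wild-type operator value. Three independent transformations; variants with ≥30 reads in all replicates and CV ≤0.5 were averaged.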

Sequence of UniProt P04483 (P04483 whole entry): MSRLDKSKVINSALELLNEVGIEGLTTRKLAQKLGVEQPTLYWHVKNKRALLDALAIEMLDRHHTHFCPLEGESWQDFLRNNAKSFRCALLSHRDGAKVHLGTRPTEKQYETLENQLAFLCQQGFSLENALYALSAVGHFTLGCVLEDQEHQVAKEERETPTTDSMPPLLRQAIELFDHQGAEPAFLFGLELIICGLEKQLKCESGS

Row | Sequence | TetR repression strength
1 | TCCCCGACAGTGACTGAGA | 0.207
2 | TCCCGAATAGTTGGAGAGA | 0.556
3 | TCCCAAAAAGTTAACGAGA | 0.249
4 | TCCCGCCTAGTAGGTGAGA | 0.253
5 | TCCCTACCAGTTAGGGAGA | 0.281
6 | TCCCATTTAGTGTTTGAGA | 0.455
7 | TCCCGCGCAGTGGTGGAGA | 0.19
8 | TCCCTACCAGTCGGAGAGA | 0.278
9 | TCCCGCACAGTTAACGAGA | 0.31
10 | TCCCCGGCAGTCCACGAGA | 0.191
11 | TCCCTGGGAGTCCACGAGA | 0.371
12 | TCCCAGATAGTTCAAGAGA | 0.169
13 | TCCCTCGGAGTTGTGGAGA | 0.2
14 | TCCCATCGAGTCGAAGAGA | 0.631
15 | TCCCGATGAGTGCGTGAGA | 0.241
16 | TCCCGTCTAGTGGCAGAGA | 0.296
17 | TCCCCTTCAGTCATGGAGA | 0.135
18 | TCCCGTGAAGTGCTCGAGA | 0.264
19 | TCCCCGTCAGTTAGCGAGA | 0.185
20 | TCCCCACAAGTCCTCGAGA | 0.562
21 | TCCCCAACAGTGTCTGAGA | 0.215
22 | TCCCCCCGAGTCCACGAGA | 0.403
23 | TCCCCCATAGTTGAAGAGA | 0.426
24 | TCCCACTGAGTGACGGAGA | 0.23
25 | TCCCTGCGAGTATGTGAGA | 0.228
26 | TCCCTCACAGTGTGGGAGA | 1.22

Row | Sequence | TetR repression strength
27 | TCCCTGCGAGTCGCTGAGA | 0.141
28 | TCCCCGTTAGTTTGAGAGA | 0.219
29 | TCCCGGTTAGTATGAGAGA | 0.179
30 | TCCCGTGCAGTGTTCGAGA | 0.213
31 | TCCCTTTAAGTAATTGAGA | 0.521
32 | TCCCTCATAGTGAAAGAGA | 0.138
33 | TCCCGACGAGTCCGTGAGA | 0.433
34 | TCCCGTAAAGTCAAGGAGA | 0.506
35 | TCCCTGTGAGTCGTTGAGA | 0.443
36 | TCCCAGGTAGTTAAGGAGA | 0.191
37 | TCCCTATCAGTACCAGAGA | 0.514
38 | TCCCGTGCAGTGCTAGAGA | 0.38
39 | TCCCTTTAAGTGTTAGAGA | 0.415
40 | TCCCGCGCAGTACATGAGA | 0.0389
41 | TCCCGGACAGTTATAGAGA | 0.134
42 | TCCCATCAAGTGTCAGAGA | 0.233
43 | TCCCATTGAGTCATTGAGA | 0.271
44 | TCCCCTCGAGTCATGGAGA | 0.279
45 | TCCCACAGAGTGGTAGAGA | 0.438
46 | TCCCAACCAGTAGGAGAGA | 0.0629
47 | TCCCTTCCAGTCATTGAGA | 0.225
48 | TCCCGTTTAGTCGGGGAGA | 0.228
49 | TCCCTAAGAGTACTGGAGA | 0.401
50 | TCCCGTAGAGTCTTTGAGA | 0.229
51 | TCCCAAGAAGTCGATGAGA | 0
52 | TCCCCTCCAGTTCTGGAGA | 0.342

Row | Sequence | TetR repression strength
53 | TCCCCTTCAGTTTCCGAGA | 0.367
54 | TCCCGCGTAGTTTAGGAGA | 0.195
55 | TCCCTGTAAGTGCGGGAGA | 0.17
56 | TCCCATTTAGTACGGGAGA | 0.296
57 | TCCCAGAGAGTCCTCGAGA | 0.278
58 | TCCCAAAGAGTGGGAGAGA | 0.23
59 | TCCCTGAGAGTGGAAGAGA | 0.109
60 | TCCCGGCGAGTATCCGAGA | 0.239
61 | TCCCAGGTAGTGCATGAGA | 0.214
62 | TCCCCACAAGTGATAGAGA | 0.652
63 | TCCCGTGTAGTGTCGGAGA | 0.26
64 | TCCCGACAAGTTCGGGAGA | 0.0995
65 | TCCCTGCAAGTATGAGAGA | 0.013
66 | TCCCGCCTAGTAGCAGAGA | 0.253
67 | TCCCCAAGAGTCCTCGAGA | 0.409
68 | TCCCCGTGAGTTGCCGAGA | 0.221
69 | TCCCGCGCAGTGGGGGAGA | 0.21
70 | TCCCCGCCAGTAGGCGAGA | 0.457
71 | TCCCGTACAGTAGGTGAGA | 0.131
72 | TCCCTGAAAGTCTACGAGA | 0.815
73 | TCCCCTCCAGTTGCAGAGA | 0.137
74 | TCCCGACCAGTGTTTGAGA | 0.066
75 | TCCCCGGAAGTTTGTGAGA | 0.173
76 | TCCCACAGAGTGTCGGAGA | 0.0864
77 | TCCCACCGAGTATTCGAGA | 0.117
78 | TCCCTTAGAGTGAGGGAGA | 0.0732

Row | Sequence | TetR repression strength
79 | TCCCAGTCAGTGGCGGAGA | 0.205
80 | TCCCGGGCAGTCATAGAGA | 0.281
81 | TCCCATGGAGTGCTAGAGA | 0.268
82 | TCCCGGCTAGTGGTCGAGA | 0.152
83 | TCCCCGGAAGTGATAGAGA | 0.33
84 | TCCCTACGAGTGGGTGAGA | 0.289
85 | TCCCTTGGAGTGTAGGAGA | 0.242
86 | TCCCGTCTAGTAGGGGAGA | 0.159
87 | TCCCGAAGAGTTGCAGAGA | 0.295
88 | TCCCGAGGAGTAGGTGAGA | 0.309
89 | TCCCAGCCAGTCAAGGAGA | 0.404
90 | TCCCAGGGAGTTGCCGAGA | 0.137
91 | TCCCATGGAGTCGTGGAGA | 0.155
92 | TCCCATAGAGTCAATGAGA | 0.255
93 | TCCCTATGAGTACAAGAGA | 0.376
94 | TCCCGTTAAGTGTACGAGA | 0.311
95 | TCCCGCCGAGTCGTCGAGA | 1.24
96 | TCCCTCGTAGTGCTAGAGA | 0.275
97 | TCCCGACGAGTACGTGAGA | 0.209
98 | TCCCGTCCAGTGTTAGAGA | 0.42
99 | TCCCGACAAGTCACAGAGA | 0.292
100 | TCCCCTAAAGTGAGTGAGA | 0.502
101 | TCCCGGAAAGTGACAGAGA | 0.223
102 | TCCCTATGAGTTATGGAGA | 0.505
